Source: PubChem BioAssay (NCATS)
Inconclusive results, whose numbers are uncertain, are shown with a selection of clear calls. For some of these results: Where the call is inconclusive, the potency comes from a doubtful curve fit. Calls of active or inactive are those of the source. Unless noted, calls come from the whole dose curve; as a rule, active = well fitted inhibition curve with a large enough effect; inconclusive = small, poorly fitted or top-dose-only effect, or effect the other way, or another doubt; inactive = flat fitted curve, though single readings scatter.

experiment: qHTS Assay for Identification of Small Molecule Agonists for Hypoxia Response Element Signaling Pathway (AID 914; active = well fitted activation curve with a large enough effect in the signal ratio, with a control signal flat, not every such curve was filed as active; inconclusive = small, poorly fitted or top-dose-only effect, or effect the other way, or a change in a side signal; the % refers to the signal ratio; for activation: top concentration of the series differs between compounds; % of control where 0% means no effect); settings: ME-180 (cervical carcinoma) HRE-bla reporter, beta-lactamase ratio, CoCl2, 17 h; activation: active compounds read high
Procedure, shortened: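 Cells were plated overnight, pin-dosed with compound in a titration series, co-stimulated with EC50 CoCl2 and incubated 17 hours at 37 degrees Celsius. CCF4 substrate was then loaded, and AC50 values came from the 460nm/530nm ratio.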
Potency is the fitted concentration of half-maximal effect; tags give direction and shape of the fitted curve or compound fluorescence and quenching.

SMILES	activation	Potency
C[C@H](Br)C(=O)c1ccc2cc(Br)c3ccccc3c2c1	inconclusive: -5.38%	–
NC(=O)CS(=O)C[C@H](N)C(=O)O (stereo not given in full)	inactive: 18.8%	–
CC(C)[C@H](N=Cc1ccccc1O)C(=O)O	inconclusive: 0.762%	–
COc1ccc(CCCNC(=O)CC#N)cc1OC	inactive: 5.59%	–
COC(=O)C(NC(C)=O)(Nc1nc2c(s1)CCCC2)C(F)(F)F (stereo not given)	inactive: -17%	–
O=C(O)C1[C@H]2C(=O)N(Cc3cccs3)C[C@]23C=C[C@H]1O3 (stereo not given in full)	inconclusive: 23.5%	–
CCN(CC)CCCN1C(=O)C(O)=C(C(=O)c2ccc(C)o2)C1c1ccc(C)o1 (stereo not given)	–	inconclusive: 10 µM [inhibitor, single point]

experiment: qHTS Assay for Identification of Small Molecule Antagonists for Thrombopoietin (TPO) Signaling Pathway (AID 918); settings: TPO-dependent cell signaling reporter, antagonist mode; activity change, negative = inhibition: at 38.5 µM (top of the series); note: nearly all actives have a fitted effect of over 60% in size
Procedure, shortened: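 Inhibition read as reduced luciferase luminescence after 24 h at 37 C in IL-3-deprived Ba/F3 cells carrying human TPO receptor and GPIIb-promoter reporter, stimulated with 26 pM TPO (final, its EC50) alongside compound.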

SMILES	activity change, negative = inhibition	Potency
C[C@H](O)[C@H](O)[C@@H]1CNc2nc(N)[nH]c(=O)c2N1	inconclusive: -0.634% [phenotype inactive]	–
CC(=O)[C@@H]1CC[C@@H]2[C@@H]3CC=C4C[C@H](OS(=O)(=O)O)CC[C@@]4(C)[C@H]3CC[C@]21C	inconclusive: -13.8% [phenotype inactive]	–
COc1cc2nc(N3CCN(C(=O)OCc4ccccc4)[C@H](C(=O)NC(C)(C)C)C3)nc(N)c2cc1OC	–	active: 12.6 µM
